The values below come from PubChem BioAssay AID1347073 (National Center for Advancing Translational Sciences (NCATS), 2019).

SMILES strings stand for the structures. The campaign covered roughly 45,000 compounds. About 200 (0.44%) were called active. Inconclusive results (about 7%) are left out. Calls come from the whole dose curve; as a rule, active = well fitted activation curve with a large enough effect; inconclusive = small, poorly fitted or top-dose-only effect; inactive = no such curve, though single readings can be large or run the other way. The list shows a part of the results.

This assay can be described thus: qHTS of TDP-43 Inhibitors: NCGC Sytravon Library Screen. Note: 0% is about no effect; nearly all actives have a fitted effect of over 55% in size. The following applies: yeast TDP-43 toxicity rescue, BacTiter-Glo growth, 24 h; series mostly up to 46.1 µM; growth rescue (activation): at the top concentration. The method, boiled down: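 TDP-43-expressing yeast, pregrown in raffinose, seeded at OD600 0.02 in galactose medium with compound for 24 hr at 30 deg C. Growth read by BacTiter-Glo luminescence, so rescue of toxicity appears as activation.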
(In general: Quantitative high-throughput screening tests each substance at several concentrations.)
`COC(=O)[C@H](CC(C)C)NC(=O)NC1CCCc2ccccc21` (stereo not given in full): the “growth rescue (activation)” value is inactive: 4.41%.

In the case of `Cc1cc(NC(=O)c2ccccc2)n(-c2ccccc2)n1`, the “growth rescue (activation)” value is inactive: -2.31%.

Turning to `O=C(CCC(=O)c1ccc(Br)cc1)Nc1cccc(C(F)(F)F)c1`, the “growth rescue (activation)” value was inactive: -8.31%.

Regarding `CCOC(=O)Cn1nc(C)c(NC(=O)c2ccc(Br)o2)c1C`, the “growth rescue (activation)” value is inactive: -9.18%.

As to `CCCCn1c(SCC(=O)NC2CCS(=O)(=O)C2)nc2cc(S(N)(=O)=O)ccc21` (stereo not given), the “growth rescue (activation)” value was inactive: 0.693%.

Take `CN(C(=O)CSc1nc2ccccc2c(=O)n1C)C1CCS(=O)(=O)C1` (stereo not given): the “growth rescue (activation)” value was inactive: 8.19%.

With `Cc1ccc(C)c(SCC(=O)OCC(=O)NCc2ccccc2)c1`, the “growth rescue (activation)” value was inactive: 19.5%.

Turning to `O=C(/C=C/c1ccc(F)cc1)Nc1cccc(S(=O)(=O)Nc2cccc(C(F)(F)F)c2)c1`, the “growth rescue (activation)” value is inactive: 19.9%.

With `C(=N\N1CCN(c2ccccn2)CC1)/C1=C(N2CCOCC2)C(=C/c2ccccc2)/CC1`, the “growth rescue (activation)” value is inactive: 1.54%.

`O=C1N=c2ccccc2=C1c1sc(=S)n(CC2CCCO2)c1O` (stereo not given): the “growth rescue (activation)” value is inactive: 22.1%.

For `CCOC(=O)Cn1nc(NC(=O)COc2ccc(F)cc2)cc1C`, the “growth rescue (activation)” value was inactive: 10.5%.

In the case of `CCCN(Cc1cc2ccccc2[nH]c1=O)C(=O)c1cccc([N+](=O)[O-])c1`, the “growth rescue (activation)” value is inactive: 1.81%.

For the compound `Cc1ccc(OCC(=O)Nc2ccc(N3CCN(C(=O)c4ccc(C)cc4)CC3)cc2)cc1`, the “growth rescue (activation)” value was inactive: -5.53%.

Turning to `Cc1ccc[n+](-c2nc3ccccc3nc2[N-]S(=O)(=O)c2ccccc2)c1`, the “growth rescue (activation)” value was inactive: 8.31%.

Take `O=C(Nc1ccc(Cl)cc1)Nc1ccc(Br)cn1`: the “growth rescue (activation)” value was inactive: 2.73%.

On to `COc1cc(C(=O)COC(=O)c2ccncc2)cc(OC)c1OC`, for which the “growth rescue (activation)” value was inactive: -6.55%.

With `CCC(=O)N1CCC1(C)C(=O)Nc1ccc(OC)c(OC)c1` (stereo not given), the “growth rescue (activation)” value is inactive: 6.4%.

Take `c1ccc(-c2cn3nc(-c4ccccc4)cnc3n2)cc1`: the “growth rescue (activation)” value is inactive: 6.61%.

Turning to `Cc1cccc(NC(=O)CSc2nc(C3CC3)nc3ccccc23)c1`, the “growth rescue (activation)” value is inactive: 19.1%.

With `Cc1occc1C(=O)NC(C)C12CC3CC(CC(C3)C1)C2` (stereo not given), the “growth rescue (activation)” value is inactive: -64.4%.

Take `CCCNC(=O)Cn1c(=O)/c(=C/c2ccc(-c3ccc([N+](=O)[O-])cc3)o2)s/c1=C\C(=O)C(C)(C)C`: the “growth rescue (activation)” value was inactive: 11.9%.

As for `Cc1ccc2[nH]c(CNC(=O)C3CCCCC3)cc2c1`, the “growth rescue (activation)” value is inactive: 18.7%.

Regarding `O=C(Nc1ccc(N2C(=O)c3cccc4cccc(c34)C2=O)cc1)c1ccc(N2CCCCC2)c([N+](=O)[O-])c1`, the “growth rescue (activation)” value is inactive: -1.52%.

Take `Cc1ccc(N2C(=O)CC(c3c[nH]c4ccccc34)C2=O)cc1` (stereo not given): the “growth rescue (activation)” value is inactive: 22%.

In the case of `O=C(COC(=O)c1ccc[nH]c1=O)NCCC1=CCCCC1`, the “growth rescue (activation)” value was inactive: 3.35%.

Regarding `Cc1ccc(OCC(=O)Nc2nnc(-c3ccco3)s2)cc1`, the “growth rescue (activation)” value is inactive: 19.3%.

In the case of `COCC(C)n1c(SCC(=O)NC2CCCCC2C)nc2ccccc2c1=O` (stereo not given), the “growth rescue (activation)” value was inactive: -4.94%.

In the case of `CC1CCN(Cc2nnnn2-c2ccc(Cl)cc2)CC1`, the “growth rescue (activation)” value was inactive: 9.13%.

`COc1ccccc1-c1cnc(C(O)c2ccc(SC)cc2)[nH]1` (stereo not given): the “growth rescue (activation)” value is inactive: 9.54%.

With `Cc1ccc(Cl)cc1NC1=C/C(=N\S(=O)(=O)c2cccs2)c2ccccc2C1=O`, the “growth rescue (activation)” value was inactive: 1.2%.

`COc1cc(OC)cc(N(C(=O)CNC(=O)c2ccco2)C(C(=O)NCC2CCCO2)c2ccccc2)c1` (stereo not given): the “growth rescue (activation)” value was inactive: -2.71%.

Regarding `c1ccc(CCN=C2CCCc3c2[nH]c2ccccc32)cc1`, the “growth rescue (activation)” value is inactive: 18.4%.

As for `Cc1ccc(OCCN(C)C(=O)CC2C(=O)NCCN2CC(C)(C)C)cc1` (stereo not given), the “growth rescue (activation)” value is inactive: 4.76%.

For the compound `O=C(CNc1cccc2ccccc12)N/N=C/c1ccc(C(=O)O)cc1`, the “growth rescue (activation)” value was inactive: 20.3%.

On to `COc1ccc(/C=N/OCC(=O)N(Cc2ccccc2)c2ccccc2C(=O)O)cc1`, for which the “growth rescue (activation)” value was inactive: 11.9%.

With `Cc1cccnc1NC(=O)Nc1cccc2ccccc12`, the “growth rescue (activation)” value was inactive: 34.8%.

In the case of `Cn1c(CCNC(=O)c2cc(COc3ccc(F)c(F)c3)on2)nc2ccccc21`, the “growth rescue (activation)” value is inactive: 9.21%.

With `O=C(N/C(=C/c1cccnc1)C(=O)N1CCOCC1)c1ccco1`, the “growth rescue (activation)” value is inactive: -3.83%.

On to `Cc1sc2ncnc(N(C)CCc3ccccn3)c2c1C`, for which the “growth rescue (activation)” value was inactive: 20.5%.

As for `CC1N/C(=C\C(=O)c2ccccc2)N(O)C1(C)C` (stereo not given), the “growth rescue (activation)” value was inactive: 11.8%.

Regarding `O=C(Nc1cccc2ncccc12)c1cc([N+](=O)[O-])ccc1Cl`, the “growth rescue (activation)” value is inactive: 0.52%.

As to `CC(=O)Nc1ccc(NC(=O)Cn2ccc([N+](=O)[O-])n2)cc1`, the “growth rescue (activation)” value was inactive: -4.41%.

On to `CCN(CC)S(=O)(=O)c1c(OC)cc(C)c(Cl)c1C`, for which the “growth rescue (activation)” value was inactive: 3.65%.

On to `COC(=O)c1ccc(CSc2ncnc3c2nnn3-c2ccc(F)cc2)o1`, for which the “growth rescue (activation)” value was inactive: -0.716%.

Turning to `O=S(=O)(c1ccccc1F)N1CCN(CC(O)c2ccccc2)CC1` (stereo not given), the “growth rescue (activation)” value was inactive: 10.5%.

For `CCC(=O)N1CCC1(C)C(=O)Nc1cc(OC)ccc1OC` (stereo not given), the “growth rescue (activation)” value was inactive: -1.5%.

Take `C=CCN1C(=O)c2cccc3c(Br)ccc(c23)C1=O`: the “growth rescue (activation)” value is inactive: 9.55%.

`COc1ccc(-c2cnc3c(NC=O)cc(-c4ccc(F)cc4)cn23)cc1OC`: the “growth rescue (activation)” value was inactive: 21.6%.

In the case of `COc1ccc(CNC(=O)Cn2nc([N+](=O)[O-])c(Br)c2C)cc1OC`, the “growth rescue (activation)” value was inactive: -0.679%.

As for `Cc1ccc(Cl)cc1NC(=O)CSc1sc2c(O)cc(=O)[nH]c2c1C#N`, the “growth rescue (activation)” value was inactive: 7.15%.

For `C=CCC1(CC=C)CCCN1Cc1nc(COc2ccccc2)no1`, the “growth rescue (activation)” value is inactive: -4.18%.

Regarding `CCN(CC(=O)Nc1cccc(OC)c1)CC(=O)Nc1ccccc1C`, the “growth rescue (activation)” value was inactive: -12.4%.

On to `Cc1ccc(S(=O)(=O)NCC(=O)OCC(=O)NCc2ccco2)cc1`, for which the “growth rescue (activation)” value is inactive: 14.4%.

Consider `COc1ccc(Cl)cc1N1C(=O)/C(=C/c2sccc2C)N=C1SCC(=O)NC1CC1`, for which the “growth rescue (activation)” value was inactive: -0.503%.

For `CN(Cc1nc2ccccc2[nH]1)C(=O)C1CCC(=O)N(CCc2cccc(F)c2)C1` (stereo not given), the “growth rescue (activation)” value is inactive: 13.3%.

With `O=C(O)c1cccc(S(=O)(=O)Nc2ccc(Oc3ccccc3)cc2)c1`, the “growth rescue (activation)” value was inactive: 32.1%.

As to `O=C(COC(=O)c1cccc(F)c1)NCCC1=CCCCC1`, the “growth rescue (activation)” value was inactive: 21.3%.

For `O=C(NCCc1ccc(Cl)cc1)C1CCN(C(=O)c2ccc(F)cc2)CC1`, the “growth rescue (activation)” value is inactive: -0.366%.

For `CC(C)NC(=O)NC(=O)CSc1nncs1`, the “growth rescue (activation)” value is inactive: 2.61%.

`COc1cc(NC(=O)CNC(=O)Cn2ccc3ccccc3c2=O)cc(OC)c1OC`: the “growth rescue (activation)” value is inactive: -5.17%.

As to `CC/C(=N\Nc1ccnc2cc(Cl)ccc12)c1ccc(O)cc1`, the “growth rescue (activation)” value was inactive: 6.22%.

Turning to `COC(=O)c1ccccc1OCCCCN1CC(C)OC(C)C1` (stereo not given), the “growth rescue (activation)” value is inactive: -3.57%.

On to `COc1ccc(/C=C/c2cc(C(=O)O)c3ccccc3n2)cc1`, for which the “growth rescue (activation)” value was inactive: -32.5%.

On to `CCN1C(=O)/C(=C\c2cccc(OC(=O)c3ccco3)c2)SC1=S`, for which the “growth rescue (activation)” value is inactive: -2.98%.

For `COc1ccc(-c2nc(N3CCN(C)CC3)sc2-c2ccc(OC)cc2)cc1`, the “growth rescue (activation)” value is inactive: -6.15%.

For `CCOc1ncccc1C(=O)NCCc1ccc(S(N)(=O)=O)cc1`, the “growth rescue (activation)” value was inactive: 14.1%.

On to `CC(=O)Nc1ccc(NC(=O)CSc2nnc(C)c(=O)n2N)cc1`, for which the “growth rescue (activation)” value was inactive: 2%.

On to `CC(C)CNCC1OCc2ccccc2CO1`, for which the “growth rescue (activation)” value was inactive: 27.4%.

`CC(C)(C)c1ccc(/C=C/C(=O)Nc2nncs2)cc1`: the “growth rescue (activation)” value was inactive: 7.33%.

For `O=C(COC(=O)c1ccc(Br)o1)NCC1CCCCC1`, the “growth rescue (activation)” value is inactive: 14.8%.
